Experimental data as given in PubChem BioAssay AID1346428 (National Center for Advancing Translational Sciences (NCATS), 2018).
Among all 48,000 compounds or so, about 1,200 (2.5%) were called active. Inconclusive results (about 2%) are left out.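 The calls were made as follows: active = activation of at least 60% and not above a set upper limit (about 1 call in 100 departs from these limits); inconclusive = activation of 40% to 60%, or above that upper limit; inactive = activation under 40%.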 Some of the results follow.

Biological target: Probable G-protein coupled receptor 32 (Homo sapiens) (UniProt O75388)
Test: qHTS for Agonists of Human Resolvin D1 Receptor DRV1; also: 0% is about no effect
Conditions: CHO-K1 GPR32 beta-arrestin PathHunter luminescence, 90 min; at 76.9 µM; hits give high values; zero percent set by DMSO-only wells
Procedure, shortened: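 Step 1: seed CHO-K1 GPR32 beta-arrestin cells, 2,500/well, overnight at 37 °C. Step 2: add compounds, 90 min at 37 °C. Step 3: detection reagent, 1 h ambient, then luminescence.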

Chain of UniProt O75388 (O75388 whole entry, looked up): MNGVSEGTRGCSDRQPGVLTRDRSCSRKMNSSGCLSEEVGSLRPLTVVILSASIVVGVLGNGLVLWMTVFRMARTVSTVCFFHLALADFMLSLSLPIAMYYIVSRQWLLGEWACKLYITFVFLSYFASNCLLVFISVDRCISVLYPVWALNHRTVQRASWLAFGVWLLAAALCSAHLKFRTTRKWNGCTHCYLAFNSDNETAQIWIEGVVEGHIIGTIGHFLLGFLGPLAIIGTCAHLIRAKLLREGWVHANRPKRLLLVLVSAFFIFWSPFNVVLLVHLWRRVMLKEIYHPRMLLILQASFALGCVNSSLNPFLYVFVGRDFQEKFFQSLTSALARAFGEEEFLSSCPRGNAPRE

SMILES | activation
Cc1cccc(NC(=O)CCNS(=O)(=O)c2cccc3nonc23)c1 | inactive: -22.1%
CC(=O)Nc1ccc(S(=O)(=O)NC2(C(F)(F)F)C(=O)Nc3c2c(=O)[nH]c(=O)n3-c2ccc(C)c(C)c2)cc1 (stereo not given) | inactive: -8.31%
Cc1ccc2cccc(NC(=O)C(C)Oc3ccc(C)c(C)c3)c2n1 (stereo not given) | inactive: -2.89%
CC1=C(C(=O)NCc2ccc(C)cc2)C2(CCCCC2)OC1=O | inactive: -15.9%
Cc1ccc(Nc2c(F)cccc2Cl)c(CC(=O)O)c1 | inactive: 31%
CCOc1ccc(NC(=O)CSc2ncc3c(n2)-c2cc(Cl)ccc2N(C)S3(=O)=O)cc1 | inactive: -2.42%
O=C(Nc1cc(Cl)ccc1Cl)C1(c2cccs2)CCOCC1 | inactive: -4.35%
Cc1noc(Cn2c(=O)c3ccccc3n(CC(=O)Nc3ccc(Cl)cc3)c2=O)n1 | inactive: -2.49%
Cc1cc(=O)n2c(C(=O)Nc3ccc(Br)cc3)c(C(=O)Nc3ccccc3)sc2n1 | inactive: -11.5%
COc1ccccc1OCc1nnc(-c2ccccc2)o1 | inactive: -4.77%
CCCCOC(=O)c1ccc(OC(=O)c2sc3ncn(Cc4ccccc4Cl)c(=O)c3c2C)cc1 | inactive: -9.3%
Cc1ccc(Cl)cc1Nc1sc(C(=O)c2ccc(F)cc2)c(N)c1S(C)(=O)=O | inactive: -31.7%
COc1cccc(CNC(=O)Cc2csc3nc(-c4ccccc4)cn23)c1 | inactive: -4.88%
CCOc1ccc(CNCCCSc2nnnn2C)cc1OC | inactive: 3.97%
O=C(CSc1nc(=O)n(Cc2ccco2)c2c1CCC2)Nc1cccc(F)c1 | inactive: -2.68%
CCOc1ccc(NC(=O)Cn2cc(C(=O)c3ccc(OC)cc3)c(=O)c3cc4c(cc32)OCO4)cc1 | inactive: 1.96%
Cc1ccccc1Nc1c(-c2ccc(Br)cc2O)nc2sccn12 | inactive: -2.01%
O=C(Nc1ccc(Cl)c(-c2nc3ccccc3o2)c1)c1ccc(-c2cccc([N+](=O)[O-])c2)o1 | inactive: -3.01%
COc1ccccc1N1CCN(C(c2ccc(Cl)cc2)c2nnc(-c3cccc(F)c3)o2)CC1 (stereo not given) | inactive: -22.5%
CCCSc1oc(-c2ccco2)nc1S(=O)(=O)c1ccc(Cl)cc1 | inactive: -33.6%
COc1ccccc1CNC(=O)c1cnc(N(C)C)nc1 | inactive: -13.5%
COc1ccc(CC(=O)Nc2sc3c(c2C(=O)Nc2cccc(C)c2)CCCCC3)cc1 | inactive: -1.89%

SMILES | activation
CCCCN(CC)CCCNC(=O)CN1C(=O)CSc2ccc(S(=O)(=O)N3CCOCC3)cc21 | inactive: -13.8%
CCOC(=O)c1cc(-c2ccc(OC)c(S(=O)(=O)NC3CCCCC3)c2)on1 | inactive: -19.5%
COc1ccccc1N(CC(=O)N1CCC(C)CC1)S(=O)(=O)c1ccc(C)cc1 | inactive: -13.2%
c1ccc2sc(SSc3nc4ccccc4s3)nc2c1 | inactive: 41%
COc1ccc(CCNC(=O)CN2C(=O)COc3ccc(C)cc32)cc1OC | inactive: 13%
CCN(C(=O)Cn1nc(Cc2ccncc2)c2ccccc2c1=O)c1cccc(Cl)c1 | inactive: -14.7%
Cc1cccc(Nc2nn3c(=O)c4cc5c(cc4nc3s2)OCO5)c1 | inactive: 23.8%
CCc1ccc(Cn2c(CNS(=O)(=O)c3ccc([N+](=O)[O-])cc3)nc3cccnc32)cc1 | inactive: -21.5%
COCCCNC(=O)c1c(-c2ccccc2)c(-c2ccccc2)nn(C)c1=O | inactive: -14.9%
COc1cc(NC(=O)c2nn(C)c3c2CS(=O)(=O)c2ccccc2-3)cc(OC)c1 | inactive: 3.81%
CCn1nc(C)c(CCN(C)C(=O)Nc2ccc(C)c(Cl)c2)c1C | inactive: 27%
COCCNC(=O)c1ccc(-n2c(-c3ccccc3)cc3c2CCC(C)C3)cc1 (stereo not given) | inactive: -31.9%
Cc1ccc(C(=O)NCc2ccc3c(c2)CCN3C(=O)c2ccc(C)cc2)cc1 | inactive: -31.5%
Cc1cc(Nc2cccc(Cl)c2)nc2ccc(NC(=O)Cc3ccc(Cl)cc3)cc12 | inactive: -5.52%
CCN(CC)CCNC(=O)CN1C(=O)COc2ccc(S(=O)(=O)N3CCOCC3)cc21 | inactive: 5.7%
CCOC(=O)Cn1c(=O)n(CC2CCCO2)c2nc(-c3ccc(OCC)cc3)nc(C(N)=O)c21 (stereo not given) | inactive: -0.694%
COc1ccc(NC(=O)c2sc3nc4c(cc3c2N)CCCCCC4)c(OC)c1 | inactive: 3.22%
COc1cc(N2C(=O)CSC23C(=O)N(Cc2cccc(F)c2)c2ccccc23)cc(OC)c1OC (stereo not given) | inactive: 9.86%
COc1ccccc1Nc1c2c(nc3ccc(NC(=O)c4ccc(OC)c(OC)c4)cc13)CCCC2 | inactive: 6.82%
COc1ccc(CCNC(=O)c2ccc3c(c2)CCN3S(=O)(=O)c2ccccc2)cc1OC | inactive: -1.66%
CCOc1ccccc1NC(=O)Cn1c(=O)n(Cc2ccccc2)c(=O)c2c1c1cc(C)ccc1n2C | inactive: -6.74%
Cc1ccc(-n2ncc(C(=O)NCc3ccccc3)c2C2CCN(C(=O)OC(C)(C)C)CC2)cc1 | inactive: -14.3%

SMILES | activation
O=C(Nc1ccc2nc(SCCOc3ccccc3Cl)sc2c1)c1ccco1 | inactive: 7.2%
CCc1cccc(NC(=O)CSc2n[nH]c(-c3ccccc3Cl)n2)c1 | inactive: 45.7%
COc1cccc(-c2nn(C)c3sc(C(=O)NCCc4cccc(C)c4)cc23)c1 | inactive: -11.8%
COc1ccc(C)cc1NC(=O)c1c(C(=O)Nc2cccc(C)c2C)sc2nc(C)cc(=O)n12 | inactive: -3.38%
Cc1nnc(N2CCN(c3cccc(Cl)c3)CC2)c2c1nnn2Cc1ccc(F)cc1 | inactive: -6.04%
CCCNC(=O)Cn1ncc2c3ccccc3n(CCC)c2c1=O | inactive: -6.88%
Cn1c(NCCN(CCO)CCCc2ccc([N+](=O)[O-])cc2)cc(=O)n(C)c1=O | inactive: 10%
CCOc1ccc(OCC)c(NC(=O)c2cnn(-c3ccc(F)cc3)c2C2CCN(C(=O)OC(C)(C)C)CC2)c1 | inactive: -11.4%
CCOC(=O)C1CCCN(C(=O)Cn2ncc3c(C)n(Cc4ccc(F)cc4)c(C)c3c2=O)C1 (stereo not given) | inactive: 8.88%
CCOc1ccc(-n2c(C)nc3cc(C(=O)NCc4ccc(C)cc4)ccc32)cc1 | inactive: -24.4%
CCOc1ccc2c(c1)c(=O)c(C(=O)c1ccc3c(c1)OCO3)cn2Cc1cccc(F)c1 | inactive: -20.1%
COc1ccc(-n2ccnc(NCc3cccs3)c2=O)cc1 | inactive: 42%
COC(=O)Nc1nc2ccc(C(=O)c3ccccc3)cc2[nH]1 | inactive: 0.501%
COc1ccc(-c2ccc(-c3noc(-c4cc(OC)cc(OC)c4)n3)c(OC)n2)cc1 | inactive: 0.104%
CCOc1ccc(-c2nnc(SCC(=O)Oc3ccccc3)o2)cc1 | inactive: -2.29%
CCn1c(=O)cc(SCC(=O)Nc2cc(Cl)ccc2OC)c2ccccc21 | inactive: -28%
O=c1c2c3c(sc2nnn1Cc1ccc(F)cc1)CCCC3 | inactive: -19.4%
CC1CCCN(c2nc(-c3ccccc3O)nc3ccccc23)C1 (stereo not given) | inactive: -0.659%
CC1CCn2c(nc3cc(C(=O)NCCc4ccccc4)ccc32)C1 (stereo not given) | inactive: 0.478%
CCOc1ccc(C(=O)Nc2nc(-c3ccc(Br)cc3)ns2)cc1 | inactive: 0.378%
COc1cccc(N2CCN(C(=O)c3cc4c(=O)n(Cc5cccnc5)ccc4nc3C)CC2)c1 | inactive: -10.2%
COc1ccc(NC(=O)Cn2c(SCc3ccc(F)cc3)nc3cccnc32)c(OC)c1 | inactive: 0.841%

SMILES | activation
Cc1ccc2c(=O)cc(C(=O)Nc3ccc(S(=O)(=O)N4CCCCC4)cc3)oc2c1 | inactive: -1.25%
COC(=O)C(NC(=O)CCc1c(C)nc2cc(-c3cccc(F)c3)nn2c1C)C(C)C (stereo not given) | inactive: 41.3%
COC(=O)c1ccccc1NC(=O)CCC(=O)N1CC(C)Sc2ccccc21 (stereo not given) | inactive: -23.9%
CCOc1ccc(CNC(=O)Nc2ccc3c(c2)N(C)C(=O)c2ccccc2S3)cc1 | inactive: -20.7%
COc1ccc(NC(=O)C2CCCN(c3cnccn3)C2)c(OC)c1 (stereo not given) | inactive: -19.8%
CCC(Cc1ccccc1)NC(=O)CCS(=O)(=O)c1cc2c(cc1Cl)NC(=O)CO2 (stereo not given) | inactive: -1.61%
CCC(C)n1c(=N)c(C(=O)NC2CCCC2)cc2c(=O)n3ccccc3nc21 (stereo not given) | inactive: 0.993%
Cc1ccc(NC(=O)CSc2cn(CC(=O)N3CCOCC3)c3ccccc23)cc1Cl | inactive: 24.9%
Cc1ccc(NC(=O)CN2C(=O)CSc3ccc(S(=O)(=O)N(C)C)cc32)c(C)c1 | inactive: 5.24%
COc1ccc2sc(N(Cc3cccnc3)C(=O)c3cccs3)nc2c1 | inactive: 0.733%
N=C(N)c1ccc(OCCCCCOc2ccc(C(=N)N)cc2)cc1 | inactive: -13.7%
Cn1c(=O)c2nc3ccc(NC(=O)C(F)(F)F)cc3nc2n(C)c1=O | inactive: -14.3%
Cc1ccc2c(c1)C(c1ccccc1)N(C(=O)c1ccc(S(=O)(=O)N3CCCC3)cc1)CC(=O)N2 (stereo not given) | inactive: -13.1%
Cc1ccc(-n2ncc3c(NC4CCCC4)ncnc32)cc1 | active: 112%
CCOC(=O)/C(C#N)=C/c1ccc(-c2ccccc2)o1 | inactive: -0.126%
O=S(=O)(c1ccccc1)c1nnn2c1nc(N1CCN(c3ccccc3)CC1)c1cc(Cl)ccc12 | inactive: 9.1%
COc1ccc2sc(N(Cc3cccnc3)C(=O)C3COc4ccccc4O3)nc2c1 (stereo not given) | inactive: -27.7%
CCCn1cc(S(=O)(=O)c2ccccc2)c(=O)c2cc(F)c(N3CCCCCC3)cc21 | inactive: -13.1%
O=C(Cn1cc2c(n1)CCCC2)Nc1cc(C(F)(F)F)ccc1Cl | inactive: -1.41%
